Source: the supplement of paper PMC11417369
Some of the results follow.

tested on: PfAP2-HC AP2 domain (GST-tagged); assay: gcPBM binding intensity (ln(normalized median fluorescence intensity)); higher = stronger DNA binding
How it was run: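 Binding of GST-tagged P. falciparum DNA-binding domains, expressed in E. coli and used at about 25 μg on average, was carried out for 1 h in 1× PBS containing 1% milk, 0.2 mg/ml BSA, 0.5% salmon testes DNA and 0.03% Triton X-100. The target was an Agilent 4 × 180k array of primer-extended double-stranded 36-bp intergenic genomic probes plus negative controls, read with Alexa488 anti-GST antibody at 488 nm. Binding intensity is the highest Masliner-normalised natural-log median intensity across replicate spots of either probe orientation.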

Row | Sequence | gcPBM binding intensity (ln)
1 | ATAGCAATAATGGAAAGTACAAAAAAACTTGTTATA [XGTACX_site8518] | 9.63
2 | TGTATTAATAAAAATACACACATCATATTATATAAA [CACACA_site3534] | 9.73
3 | CCTTTTAAGAGTTGCACACGTACAAAAAAAAAAAAA [CACACA_site3492] | 9.67
4 | AATAATAAAAAATACGCACACATGTAAACGTATGTT [CACACA_site3336] | 9.96
5 | GGCGATATAGAACTACGTACTTATACAAATTATAAT [XGTACX_site2307] | 9.55
6 | ACACATAAATGTATATATATATAAATATATGTATGT [CACACA_negctrl_site1532] | 9.82
7 | ATAAATGTTATGCATACACACTTTATACCTATTTAA [CACACA_site5967] | 9.79
8 | AATCCTTACAGACACACACACACGAATAAATAAAAA [CACACA_site480] | 10.6
9 | TATATATGTATATGTGTGCACCTTATTTCTTTTATT [GTGCAC_site9513] | 10
10 | TATGTATTATCAAAAAGTACTAAAAAAAAATAATAA [XGTACX_site4703] | 9.47
11 | TTATAATTTTTGAGCACACACAAGCATATATATATA [CACACA_site1798] | 9.84
12 | AATAAATACATACATACATGCATACATATATCTCAA [TGCATGCA_site1040] | 9.69
13 | AAAAATAAAATATATATATATATATATATATATATA [CACACA_negctrl_site58] | 9.46
14 | TATTTTTATATATATACACACTTACAGATATATATT [CACACA_site5905] | 9.9
15 | AAACATAAATATGAGAGTACAAAAAATATTATGAAT [XGTACX_site151] | 9.85
16 | TGAAAAAAAAAATGCACACGCATACATATAATATGT [CACACA_site641] | 9.76
17 | TTATAATATATTACAAGTTCATTCATATAATATGTT [CACACA_negctrl_site1695] | 9.52
18 | ATCTCTTAAATTTTACGTACTTATTTTATCTTCTTA [XGTACX_site8877] | 9.94
19 | TAAATAAATTTGCACTGTACGCAAAAAAAAAAAAGA [XGTACX_site8781] | 9.69
20 | GTATATATATATTTATGTACTTACCTACATAATTAT [XGTACX_site4435] | 10.1
21 | AAAGGGGAGATATGAACACACAAAAAAAAAATATAT [CACACA_site7378] | 9.72
22 | TATATATATTTTAAATGTACTTATAAATTACCACTT [XGTACX_site5673] | 9.6

Row | Sequence | gcPBM binding intensity (ln)
23 | AGAAAGGATATAAGCGTAGCTATATCATAAAAAATG [GTGCAC_negctrl_site332] | 9.61
24 | AAATAAAATTTTTGTTGTACTTATTTTTAGTATACT [XGTACX_site4254] | 9.65
25 | AATATTTACAGACATGCGCACACATAAATAAATAAT [CACACA_site8760] | 10
26 | AAAAATGATATGAGTTGTACATAAGTAAGAATTATT [XGTACX_site7089] | 9.89
27 | TAAAAACGATTTTTTGCACACACATAATAAGCAGAA [CACACA_site3870] | 10
28 | GGACAAGTTAAACGCACACAAATATATACCCCCATA [CACACA_site4996] | 10.3
29 | TATAATAAAATATGTACACACATACACCCATATATA [CACACA_site4808] | 10.3
30 | ACAAGTAATTAAGAGTGTACATAACTATAAATCCAA [XGTACX_site5215] | 10.1
31 | GATATGATGAGATTGATATTCATAAGAGGATTAATG [GTGCAC_negctrl_site515] | 9.59
32 | TGTATGTATGTATTATTTGTTATTTTAATTTTTTTG [TGCATGCA_negctrl_site256] | 9.86
33 | GAGATTTATTTATGTGCACACTAGAACAATTGGATC [CACACA_site2090] | 9.82
34 | CTTTTTTCAAAACACACACACAAGAAAATATATATA [CACACA_site3109] | 10.1
35 | TTTTTTTTTTTTGTGCGTACATACCATTTTAATAAT [XGTACX_site2760] | 9.68
36 | AAGACATTTTTTAAGGTGCTTTGGAAAAAGGAGTAT [GTGCAC_site9816] | 9.7
37 | GATGTGATGTATTTGGTATTTTTCGATGTTGGTAGG [CACACA_negctrl_site355] | 10
38 | TATTATATATCAAAATGTACATTAATTTGAGTAATT [XGTACX_site5434] | 9.52
39 | TTACCTCTTTGAAATATACACACTAATCATATCAAC [CACACA_site8778] | 9.76
40 | TTTTTGCTATTCTATTATATATATAATATATTTTAC [CACACA_negctrl_site262] | 9.9
41 | TGTTCAGTAGGGCACACACACAACAAAATAAAAAAA [CACACA_site378] | 10.2
42 | ATGAGTTACATGGGAAAAATATATATATATATATAT [CACACA_negctrl_site579] | 9.48
43 | TGATAAATATGGAGCACACACACATAAACATACATA [CACACA_site420] | 10.4
44 | TTGTTGTATTATTTATGTACATATGTATATGTATAT [XGTACX_site1315] | 9.93
